{"source": "PubChem BioAssay AID504332", "about": "(National Center for Advancing Translational Sciences (NCATS), 2011)", "note": "Out of some 350,000 compounds screened, about 31,000 (8.9%) were called active. The shares of active, inactive and inconclusive entries below differ from those in the screen. Calls follow the shape of the dose curve; as a rule, active = well fitted inhibition curve with a large enough effect; inconclusive = small, poorly fitted or top-dose-only effect; inactive = no such curve, though single readings can be large or run the other way. Where the call is inconclusive, the potency comes from a doubtful curve fit. % is scaled to controls: 0 for no effect and ±100 for the full control effect; potency is read from the fitted curve at half-maximal effect; tags tell the direction and shape of the fitted curve."}
{"target": "Histone-lysine N-methyltransferase EHMT2 (Homo sapiens) (UniProt Q96KQ7)", "sequence (Q96KQ7 whole entry, looked up)": "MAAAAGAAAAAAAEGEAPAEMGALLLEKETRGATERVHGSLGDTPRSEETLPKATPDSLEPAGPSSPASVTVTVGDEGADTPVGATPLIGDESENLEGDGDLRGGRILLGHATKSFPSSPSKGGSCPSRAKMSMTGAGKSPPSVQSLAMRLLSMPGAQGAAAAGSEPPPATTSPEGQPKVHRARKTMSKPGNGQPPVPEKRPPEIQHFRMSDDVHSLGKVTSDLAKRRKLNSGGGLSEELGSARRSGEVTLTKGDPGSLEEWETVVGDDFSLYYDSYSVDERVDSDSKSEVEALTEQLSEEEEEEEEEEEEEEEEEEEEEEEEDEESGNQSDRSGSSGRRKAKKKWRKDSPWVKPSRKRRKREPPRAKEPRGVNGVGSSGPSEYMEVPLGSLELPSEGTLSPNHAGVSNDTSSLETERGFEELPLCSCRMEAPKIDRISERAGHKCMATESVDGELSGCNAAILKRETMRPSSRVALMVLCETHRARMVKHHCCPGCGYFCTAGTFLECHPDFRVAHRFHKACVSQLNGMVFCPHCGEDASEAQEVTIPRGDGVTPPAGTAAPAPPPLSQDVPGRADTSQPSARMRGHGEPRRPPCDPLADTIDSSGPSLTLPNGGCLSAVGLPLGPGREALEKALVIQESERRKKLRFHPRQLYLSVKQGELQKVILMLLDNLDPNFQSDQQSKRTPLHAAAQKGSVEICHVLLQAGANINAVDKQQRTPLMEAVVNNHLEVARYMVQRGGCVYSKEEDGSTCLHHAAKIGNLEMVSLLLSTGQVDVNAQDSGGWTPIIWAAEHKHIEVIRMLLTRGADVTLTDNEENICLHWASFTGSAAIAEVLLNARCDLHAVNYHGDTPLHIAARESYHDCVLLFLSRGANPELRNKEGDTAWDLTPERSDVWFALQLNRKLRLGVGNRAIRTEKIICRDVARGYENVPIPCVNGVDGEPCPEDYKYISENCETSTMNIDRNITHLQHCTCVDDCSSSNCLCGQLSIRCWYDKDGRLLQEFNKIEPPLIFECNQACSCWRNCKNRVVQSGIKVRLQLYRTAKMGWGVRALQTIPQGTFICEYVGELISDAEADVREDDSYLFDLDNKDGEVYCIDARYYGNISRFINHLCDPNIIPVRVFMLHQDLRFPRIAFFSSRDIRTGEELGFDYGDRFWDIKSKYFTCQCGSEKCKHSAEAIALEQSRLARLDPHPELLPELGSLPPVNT", "assay": "qHTS Assay for Inhibitors of Histone Lysine Methyltransferase G9a; also: nearly all actives have a fitted effect of over 75% in size", "conditions": "G9a H3K9 monomethylation, AlphaScreen, 2 h; activity, negative = inhibition: at 59 µM (top of the series) unless noted", "in_short": "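Step 1: enzyme (final 20 nM) with compound, 15 min RT. Step 2: substrate peptide 500 nM and SAM 20 uM, 2 h RT. Step 3: anti-H3K9me1 antibody and AlphaScreen beads, 10 min, then plate read.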"}
{"smiles": "Cc1cccc(OCCNC(=O)c2ccc(Cl)c(S(=O)(=O)NCc3cccnc3)c2)c1", "Potency": "inconclusive: 0.158 µM [inhibitor, full curve, poor fit]"}
{"smiles": "Cc1cc(C)cc(N(C(=O)Cn2nnc3ccccc32)C(C(=O)NCc2ccco2)c2ccncc2)c1", "note": "(stereo not given)", "Potency": "inconclusive: 1.12 µM [inhibitor, full curve, poor fit]"}
{"smiles": "O=C(CN(c1ccc(F)cc1)S(=O)(=O)c1ccc2c(c1)OCCO2)NCc1ccncc1", "Potency": "inactive"}
{"smiles": "COc1ccccc1/C=C1\\SC(=S)N(CCC(=O)Nc2ccc(C(=O)O)c(O)c2)C1=O", "Potency": "active: 50.1 µM"}
{"smiles": "Oc1oc(C=Nc2ccc(F)cc2F)c2ccccc12", "Potency": "active: 5.01 µM"}
{"smiles": "CCc1ccc2[nH]c(O)c(N=NC3=NC(=O)CS3)c2c1", "Potency": "inconclusive: 39.8 µM [inhibitor, partial curve]"}
{"smiles": "COc1ccc(CN(CC(=O)NCC2CCCO2)C(=O)CCC(=O)Nc2cc(C)on2)cc1", "note": "(stereo not given)", "Potency": "inconclusive: 39.8 µM [inhibitor, single point]"}
{"smiles": "CCCCOc1ccc(C2C(C(=O)c3ccc(C)o3)=C(O)C(=O)N2CC2CCCO2)cc1", "note": "(stereo not given)", "Potency": "inconclusive: 14.1 µM [inhibitor, partial curve]"}
{"smiles": "O=C(CSc1nc2c(cnn2-c2ccccc2)c(=O)[nH]1)N1N=C(c2cccs2)CC1c1ccc(F)cc1", "note": "(stereo not given)", "Potency": "active: 28.2 µM"}
{"smiles": "c1ccc(-n2ncc3c2ncn2nnnc32)cc1", "Potency": "inconclusive: 8.91 µM [inhibitor, full curve, poor fit]"}
{"smiles": "CCN(CC(=O)Nc1c(F)cccc1F)C(=O)/C=C/c1ccc(S(=O)(=O)N2CCCCCC2)cc1", "Potency": "inactive"}
{"smiles": "Cc1cc(C)cc(N2C(=O)N(Cc3cc(=O)n4ccccc4n3)c3ccccc3S2(=O)=O)c1", "Potency": "inactive"}
{"smiles": "COc1cc(OC)c(OC)cc1CN1CCc2nc(N3CCN(C)CC3)ncc2C1", "activity, negative = inhibition": "inactive: -1.75% [at 12.7 µM]"}
{"smiles": "CCN(Cc1nc2cc(Cl)ccc2c(=O)[nH]1)C(=O)c1cccc(OCc2c(C)noc2C)c1", "activity, negative = inhibition": "inactive: 18% [at 2.33 µM]"}
{"smiles": "CCOC(=O)c1ccc(N2NC(=O)/C(=C/c3ccc(OC(=O)c4ccco4)c(OC)c3)C2=O)cc1", "Potency": "active: 31.6 µM"}
{"smiles": "Cn1c(=NC(=O)C2CCCCC2)sc2cc([N+](=O)[O-])ccc21", "Potency": "inconclusive: 39.8 µM [inhibitor, partial curve, poor fit]"}
{"smiles": "Cc1ccc(C2C(C#N)=C(N)OC3=C2C(=O)CCC3)s1", "note": "(stereo not given)", "Potency": "inactive"}
{"smiles": "CCC(=O)c1ccc(OCC(O)CNCc2ccc(F)cc2)cc1", "note": "(stereo not given)", "Potency": "inactive"}
{"smiles": "CC(C)c1ccc(C(O)c2cnc(C(C)C)n2C)cc1", "note": "(stereo not given)", "Potency": "inactive"}
{"smiles": "COCCn1c(C)cc(C(=O)COC(=O)c2ccc(Br)o2)c1C", "Potency": "inconclusive: 89.1 µM [inhibitor, single point]"}
{"smiles": "CS(=O)(=O)c1ccc(Cl)c(NC(=O)c2cccc(-n3cnnn3)c2)c1", "Potency": "inconclusive: 31.6 µM [inhibitor, partial curve, poor fit]"}
{"smiles": "CCOc1ccc(-n2c(Cc3cc(=O)[nH]c(=O)[nH]3)nnc2SCC(=O)OC)cc1", "Potency": "inconclusive: 100 µM [inhibitor, single point]"}
{"smiles": "O=C(O)COc1ccc(-c2nnn(Cc3ccccc3F)n2)cc1", "Potency": "inconclusive: 0.501 µM [inhibitor, partial curve, poor fit]"}
{"smiles": "Cc1ccc2cc(COC(=O)c3ccco3)c(=O)[nH]c2c1", "Potency": "inconclusive: 31.6 µM [inhibitor, single point]"}
{"smiles": "COc1ccc(Oc2cc(NN3CCCCC3)c([N+](=O)[O-])cc2[N+](=O)[O-])cc1OC", "Potency": "inconclusive: 39.8 µM [inhibitor, partial curve, poor fit]"}
{"smiles": "CCOC(=O)c1c(C)[nH]c(C(=O)COC(=O)C2CC2C)c1C", "note": "(stereo not given)", "Potency": "inconclusive: 89.1 µM [inhibitor, single point]"}
{"smiles": "CCOC(=O)c1sc2nc(N3CCOCC3)c3c(c2c1N)CC(C)(C)N(C)C3", "Potency": "inconclusive: 89.1 µM [inhibitor, single point]"}
{"smiles": "COc1cc(C(=O)Oc2cccc(/C=N/NC(=O)c3cc(C)[nH]n3)c2)cc(OC)c1OC", "Potency": "inconclusive: 56.2 µM [inhibitor, partial curve, poor fit]"}
{"smiles": "Cc1ccc(C)c2nc(SCC(=O)NCc3cccs3)c(C#N)cc12", "Potency": "inconclusive: 25.1 µM [inhibitor, single point]"}
{"smiles": "COc1ccc(C(=O)Nc2ccc3nc4c(c(Nc5ccccc5OC)c3c2)CCCC4)c(OC)c1", "Potency": "inconclusive: 3.55 µM [inhibitor, partial curve, poor fit]"}
{"smiles": "COc1ccc(C(=O)CSc2nnc(Cn3cnc4ccccc43)o2)cc1", "Potency": "inconclusive: 50.1 µM [inhibitor, partial curve]"}
{"smiles": "O=C(CSc1nc2ccccc2c(=O)n1NC(=O)Cc1ccccc1)NCc1ccccc1", "Potency": "inconclusive: 89.1 µM [inhibitor, single point]"}
{"smiles": "Cc1cc(C)cc(NC(=O)COC(=O)Cn2cnc3c2c(=O)n(C)c(=O)n3C)c1", "Potency": "inactive"}
{"smiles": "Cc1ccc2nc(N3C(=O)C(O)=C(C(=O)c4ccc(C)o4)C3c3ccc(O)cc3)sc2c1", "note": "(stereo not given)", "Potency": "inconclusive: 2.82 µM [inhibitor, partial curve, poor fit]"}
{"smiles": "COc1ccc(CNC(=O)Cc2coc3ccc(C)cc23)cc1", "Potency": "inactive"}
{"smiles": "O=C(Nc1cccnc1)c1ccc(Cl)c(S(=O)(=O)N2CCc3ccccc32)c1", "Potency": "inactive"}
{"smiles": "CCCS(=O)(=O)c1nc(S(=O)(=O)c2ccc(C)cc2)c(NCc2ccc3c(c2)OCO3)s1", "Potency": "active: 39.8 µM"}
{"smiles": "Cc1c(NC(=O)COC(=O)c2ccc(O)cc2)c(=O)n(-c2ccccc2)n1C", "Potency": "inconclusive: 28.2 µM [inhibitor, single point]"}
{"smiles": "CC(C)Oc1ccc(CNC(=O)c2ccc3c(c2)nc2n3CCOC2)cc1", "Potency": "inactive"}
{"smiles": "O=C(Cn1cc(S(=O)(=O)Cc2cccc([N+](=O)[O-])c2)c2ccccc21)N1CCOCC1", "Potency": "inconclusive: 79.4 µM [inhibitor, single point]"}
{"smiles": "Cc1cc(-c2nnc(-c3ccccc3)c(-c3ccccc3)n2)c(C)o1", "Potency": "active: 15.8 µM"}
{"smiles": "CC(C)Cn1c(N)c(C(=O)COC(=O)c2ccc([N+](=O)[O-])o2)c(=O)n(C)c1=O", "Potency": "inconclusive: 44.7 µM [inhibitor, partial curve, poor fit]"}
{"smiles": "COc1ccc(O[C@H]2C=C[C@@H](c3ccccc3)O[C@@H]2CO/N=C/C[C@@H]2C=C[C@H](OC(C)=O)[C@@H](COC(C)=O)O2)cc1", "Potency": "inconclusive: 79.4 µM [inhibitor, single point]"}
{"smiles": "Cc1cc(NC(c2cccnc2)c2c(C)[nH]c3ccccc23)no1", "note": "(stereo not given)", "activity, negative = inhibition": "inactive: -44.2% [at 12.7 µM]"}
{"smiles": "CCCN1CCN(C(=O)c2cc3c(s2)-c2ccccc2S(=O)(=O)C3)CC1", "Potency": "inconclusive: 89.1 µM [inhibitor, single point]"}
{"smiles": "Cc1ccc(-c2nnn(CC(=O)N(CCCO)C(C(=O)NC3CCCC3)c3ccc(Cl)cc3)n2)o1", "note": "(stereo not given)", "Potency": "inconclusive: 14.1 µM [inhibitor, partial curve, poor fit]"}
{"smiles": "O=C(/C=C/NNC(=O)c1cccc(Br)c1)c1cccc(Br)c1", "activity, negative = inhibition": "inactive: 49.1% [at 12.7 µM]"}
{"smiles": "Cc1ccc(OCc2cc(C(=O)NC3CCc4ccccc43)no2)cn1", "note": "(stereo not given)", "Potency": "inconclusive: 44.7 µM [inhibitor, partial curve, poor fit]"}
{"smiles": "CCCCn1c(N)c(N(CC(C)C)C(=O)Cn2c(=O)oc3ccccc32)c(=O)[nH]c1=O", "Potency": "inactive"}
{"smiles": "CCC(=O)Nc1ccc(-c2cc(-c3ccccc3)nc(-c3ccc(NC(=O)CC)cc3)n2)cc1", "Potency": "inconclusive: 79.4 µM [inhibitor, partial curve, poor fit]"}
{"smiles": "O=C(Nc1ccccc1N1CCCC1)c1cccc(-c2cc3ccccc3oc2=O)c1", "Potency": "inconclusive: 15.8 µM [inhibitor, partial curve, poor fit]"}
{"smiles": "Cc1cccc(C)c1NC(=O)CSc1nc(C2CC2)nc2ccccc12", "Potency": "inactive"}
{"smiles": "O=C(Nc1ccc2c(c1)OCO2)c1cc(-c2cccnc2)nc2ccccc12", "Potency": "inconclusive: 50.1 µM [inhibitor, partial curve, poor fit]"}
{"smiles": "O=C(CN1CCN(C(c2ccccc2)c2ccccc2)CC1)N1CCOCC1", "Potency": "active: 8.91 µM"}
{"smiles": "COc1ccc(NC(=O)Cn2cc(C(=O)c3ccccc3OC)c(=O)c3ccc(C)nc32)cc1OC", "Potency": "inactive"}
{"smiles": "CC1=CC(C)(C)Nc2ccc(OC(=O)C(Cc3ccccc3)N3C(=O)C4CCCCC4C3=O)cc21", "note": "(stereo not given)", "Potency": "active: 50.1 µM"}
{"smiles": "Cc1sc2c(c1C)CN(C(C)(C)C)CN2C(=O)c1ccccc1", "Potency": "active: 50.1 µM"}
{"smiles": "Nc1ccccc1N=Cc1ccc(-c2cccc(Cl)c2)o1", "Potency": "inconclusive: 22.4 µM [inhibitor, partial curve, poor fit]"}
{"smiles": "O=C1COc2ccc(C(=O)COC(=O)c3cc(S(=O)(=O)NCc4ccccc4)ccc3O)cc2N1", "activity, negative = inhibition": "inconclusive: -59% [inhibitor]"}
{"smiles": "CC(C)(C)c1ccc(C(=O)NCCC(=O)N2CCC3(CC2)NCCc2[nH]cnc23)cc1", "Potency": "inconclusive: 89.1 µM [inhibitor, single point]"}
{"smiles": "CC(NCc1ccc2c(c1)OCO2)C(=O)NC1CCCc2ccccc21", "note": "(stereo not given)", "Potency": "inconclusive: 3.16 µM [inhibitor, single point]"}
{"smiles": "Cn1cccc1/C=C(/C#N)c1ccc(F)cc1", "Potency": "inconclusive: 28.2 µM [inhibitor, single point]"}
{"smiles": "CC(=O)Nc1nc(-c2ccc3c(c2)CCO3)cs1", "Potency": "inconclusive: 6.31 µM [inhibitor, single point]"}
{"smiles": "COc1ccc(OC)c(C2/C(=C(/O)c3ccccc3)C(=O)C(=O)N2Cc2ccco2)c1", "note": "(stereo not given)", "Potency": "inactive"}
{"smiles": "CCN(CC(=O)Nc1ccc(S(=O)(=O)N2CCCC2)cc1)Cc1ccccc1", "Potency": "active: 44.7 µM"}
